Laboratory results from paper PMC12337393.
These are yes or no findings as the source states them, for the method shown. Binding seen in cells or lysates may run through a third protein. Some entries that bind do so weakly or less than the wild type. For part of these data: Where a sequence is shown, tags or fusion partners need not be part of it. Each block holds one binder with its values, some of them ahead of it.

Amino acid sequences for entries named in this document (tags omitted). A change or cut given only in a name is not applied to a line headed by its entry. Chains listed by the source or under a name are the forms on record and can include a tag or linker. Residues count along the entry.
UniProt Q96GD4: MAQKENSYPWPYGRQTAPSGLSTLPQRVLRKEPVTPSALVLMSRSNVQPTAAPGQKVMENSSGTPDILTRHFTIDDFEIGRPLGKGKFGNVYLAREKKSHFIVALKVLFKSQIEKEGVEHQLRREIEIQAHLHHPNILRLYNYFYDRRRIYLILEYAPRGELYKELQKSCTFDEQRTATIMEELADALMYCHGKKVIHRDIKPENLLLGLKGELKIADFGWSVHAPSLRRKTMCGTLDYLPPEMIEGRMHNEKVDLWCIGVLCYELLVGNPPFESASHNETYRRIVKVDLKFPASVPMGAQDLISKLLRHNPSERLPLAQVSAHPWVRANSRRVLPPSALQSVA
Flag-tagged AURKB truncation 1-251aa: residues 1-251 of Q96GD4
Flag-tagged AURKB truncation 1-76aa: residues 1-76 of Q96GD4
Flag-tagged AURKB truncation 252-344aa (C-terminal domain): residues 252-344 of Q96GD4

Key:
[1] = target: Aurora kinase B (AURKB), endogenous (human (endogenous in HCT116, RKO and CRC tissue)) (UniProt Q96GD4); assay: co-IP; endogenous proteins; immunoprecipitation with an anti-AURKB antibody from HCT116 and RKO cells, western blot for AURKB and HNRNPM
[2] = target: Aurora kinase B (AURKB), endogenous (human (endogenous in HCT116, RKO and CRC tissue)) (UniProt Q96GD4); assay: proximity ligation; formalin-fixed paraffin-embedded sections of CRC and paired normal tissues; rabbit anti-AURKB (1:400) and mouse anti-HNRNPM (1:100), anti-mouse PLUS and anti-rabbit MINUS probes
[3] = target: Flag-tagged AURKB truncation 1-251aa (UniProt Q96GD4); assay: co-IP; 293T cells co-transfected with Flag-tagged AURKB (full-length or truncations) and HA-tagged HNRNPs, lysed 48 h after transfection; immunoprecipitation with anti-Flag antibody or control rabbit IgG, western blot
[4] = target: Flag-tagged AURKB truncation 1-76aa (UniProt Q96GD4); assay: as above
[5] = target: Flag-tagged AURKB truncation 252-344aa (C-terminal domain) (UniProt Q96GD4); assay: as above
[6] = target: Flag-tagged AURKB, full-length (Aurora kinase B) (UniProt Q96GD4); assay: as above

binding [1]: binds
binding [2]: binds
B1: Heterogeneous nuclear ribonucleoprotein M (HNRNPM), endogenous (protein, UniProt P52272 1-730)
chain: MAAGVEAAAEVAATEIKMEEESGAPGVPSGNGAPGPKGEGERPAQNEKRKEKNIKRGGNRFEPYANPTKRYRAFITNIPFDVKWQSLKDLVKEKVGEVTYVELLMDAEGKSRGCAVVEFKMEESMKKAAEVLNKHSLSGRPLKVKEDPDGEHARRAMQKVMATTGGMGMGPGGPGMITIPPSILNNPNIPNEIIHALQAGRLGSTVFVANLDYKVGWKKLKEVFSMAGVVVRADILEDKDGKSRGIGTVTFEQSIEAVQAISMFNGQLLFDRPMHVKMDERALPKGDFFPPERPQQLPHGLGGIGMGLGPGGQPIDANHLNKGIGMGNIGPAGMGMEGIGFGINKMGGMEGPFGGGMENMGRFGSGMNMGRINEILSNALKRGEIIAKQGGGGGGGSVPGIERMGPGIDRLGGAGMERMGAGLGHGMDRVGSEIERMGLVMDRMGSVERMGSGIERMGPLGLDHMASSIERMGQTMERIGSGVERMGAGMGFGLERMAAPIDRVGQTIERMGSGVERMGPAIERMGLSMERMVPAGMGAGLERMGPVMDRMATGLERMGANNLERMGLERMGANSLERMGLERMGANSLERMGPAMGPALGAGIERMGLAMGGGGGASFDRAIEMERGNFGGSFAGSFGGAGGHAPGVARKACQIFVRNLPFDFTWKMLKDKFNECGHVLYADIKMENGKSKGCGVVKFESPEVAERACRMMNGMKLSGREIDVRIDRNA

binding [3]: no binding
binding [4]: no binding
binding [5]: binds
binding [6]: binds
B2: HA-tagged HNRNPM (heterogeneous nuclear ribonucleoprotein M) (protein, UniProt P52272 1-730)
chain: B1 chain
